# Results published in PubChem BioAssay (Tox21).
# The inconclusive results got no clear call from the source; some entries with a clear call stand among them for comparison. For some of these results: A potency beside an inconclusive call is a rough fit, not a confirmed value. Active and inactive are the calls of the source. Unless noted, the call rests on the fitted dose curve; in most records, active means well fitted curve in the direction sought with a large enough effect in the repeat runs; inconclusive means weak or mixed curves; inactive means no such curve, though single readings can be large; an effect the other way counts as inactive or inconclusive.
# Key:
# [1] = biological target: Peroxisome proliferator-activated receptor gamma (Homo sapiens) (UniProt P37231); assay: qHTS assay to identify small molecule agonists of the peroxisome proliferator-activated receptor gamma (PPARg) signaling pathway (AID 743094; active means well fitted activation curve with a large enough effect in the signal ratio in the repeat runs, not every such curve was filed as active; inconclusive means weak or mixed curves, or effect the other way; inactive means no such curve, though single readings can be large or run the other way; the % refers to the signal ratio; further: on the % scale 0 is the no-effect control and ±100 the full control effect); conditions: HEK293H PPARg-UAS-bla, beta-lactamase FRET ratio, 17 h; activation: at 57 µM (top of the series) unless noted
# Chain of UniProt P37231 (P37231 whole entry, looked up): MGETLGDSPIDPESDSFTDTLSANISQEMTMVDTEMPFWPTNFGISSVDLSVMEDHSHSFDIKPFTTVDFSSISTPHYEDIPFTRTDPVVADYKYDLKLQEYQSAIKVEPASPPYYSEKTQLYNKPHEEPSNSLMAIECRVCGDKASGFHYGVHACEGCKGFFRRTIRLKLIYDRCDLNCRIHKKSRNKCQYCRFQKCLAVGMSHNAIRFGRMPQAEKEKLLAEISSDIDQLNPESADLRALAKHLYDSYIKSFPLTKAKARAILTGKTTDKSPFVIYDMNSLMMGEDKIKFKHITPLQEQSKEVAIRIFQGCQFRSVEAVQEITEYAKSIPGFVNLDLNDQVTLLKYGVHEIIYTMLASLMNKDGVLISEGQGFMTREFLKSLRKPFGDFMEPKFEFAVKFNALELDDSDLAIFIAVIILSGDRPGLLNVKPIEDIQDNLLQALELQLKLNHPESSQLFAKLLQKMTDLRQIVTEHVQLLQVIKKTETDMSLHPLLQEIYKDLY
# Outline: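 Agonist activity was taken from a beta-lactamase reporter (FRET substrate, 1 h at room temperature) in HEK293H cells carrying a PPARg UAS-bla construct. Compounds in DMSO were incubated 17 h at 37C after a 5 h cell pre-incubation.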
# [2] = qHTS assay to identify small molecule antagonists of the peroxisome proliferator-activated receptor gamma (PPARg) signaling pathway - cell viability counter screen (AID 743194); conditions: PPARg-bla HEK293H viability, CellTiter-Glo luminescence, 17 h, co-treated with 50 nM rosiglitazone; activity change, negative = cytotoxicity: at 62.6 µM (top of the series); further: nearly all actives have a fitted effect of over 55% in size; further: potency means the concentration at half of the fitted maximal effect
# Outline: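 Viability was measured as CellTiter-Glo luminescence in GeneBLAzer PPARg UAS-bla HEK293H cells. These cells had been exposed 17 h at 37 C to compounds together with rosiglitazone at 50 nM final, with the beta-lactamase readout taken in the same wells.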
# [3] = qHTS assay to identify small molecule antagonists of the peroxisome proliferator-activated receptor delta (PPARd) signaling pathway - cell viability counter screen (AID 743213); conditions: PPARd-bla HEK293H viability, CellTiter-Glo luminescence, 17 h; viability change, negative = cytotoxic: at 62 µM (top of the series) unless noted; further: potency means the concentration at half of the fitted maximal effect; nearly all actives have a fitted effect of over 50% in size
# Outline: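 In this counter screen, HEK293H cells carrying a UAS-beta-lactamase reporter are co-treated with test compounds and 300 nM L165041 (final) for 17 h at 37 C; cell viability is quantified by CellTiter-Glo luminescence.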
# [4] = qHTS assay for small molecule agonists of the antioxidant response element (ARE) signaling pathway (AID 743202; active means well fitted activation curve with a large enough effect in the signal ratio in the repeat runs, not every such curve was filed as active; inconclusive means weak or mixed curves, or effect the other way; inactive means no such curve, though single readings can be large or run the other way; the % refers to the signal ratio; further: potency means the concentration at half of the fitted maximal effect); conditions: HepG2 ARE-bla reporter, beta-lactamase FRET, 16 h
# Outline: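 Beta-lactamase reporter activity, read as fluorescence intensity, reflects ARE/Nrf2 pathway induction in HepG2 cells after 16 h compound exposure at 37 C; substrate loading was 2 h at room temperature.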
# [5] = biological target: Peroxisome proliferator-activated receptor delta (Homo sapiens) (UniProt Q03181); assay: qHTS assay to identify small molecule antagonists of the peroxisome proliferator-activated receptor delta (PPARd) signaling pathway (AID 743215; active means well fitted inhibition curve with a large enough effect in the signal ratio in the repeat runs, not every such curve was filed as active; inconclusive means weak or mixed curves, or effect the other way; inactive means no such curve, though single readings can be large or run the other way; the % refers to the signal ratio;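 further: cells stimulated with agonist L165041 at 300 nM final during compound exposure; on the % scale 0 is the no-effect control and ±100 the full control effect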); conditions: HEK293H PPARd-UAS-bla, beta-lactamase FRET ratio, antagonist, 17 h; ratio activity, negative = inhibition: at 62 µM (top of the series) unless noted
# Chain of UniProt Q03181 (Q03181 whole entry, looked up): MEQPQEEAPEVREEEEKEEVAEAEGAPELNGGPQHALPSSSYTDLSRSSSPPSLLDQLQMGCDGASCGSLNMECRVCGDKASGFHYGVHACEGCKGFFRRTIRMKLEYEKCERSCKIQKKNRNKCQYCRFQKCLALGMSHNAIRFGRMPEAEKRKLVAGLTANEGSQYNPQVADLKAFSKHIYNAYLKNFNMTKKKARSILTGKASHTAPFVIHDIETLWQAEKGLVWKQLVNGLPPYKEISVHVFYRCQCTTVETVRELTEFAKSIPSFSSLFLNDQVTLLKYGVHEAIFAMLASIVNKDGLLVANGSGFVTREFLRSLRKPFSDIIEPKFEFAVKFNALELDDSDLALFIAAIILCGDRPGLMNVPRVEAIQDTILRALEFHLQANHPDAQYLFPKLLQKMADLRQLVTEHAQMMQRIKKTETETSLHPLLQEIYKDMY
# Outline: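 Agonist L165041 (300 nM final) added with compound to PPARd-bla HEK293H UAS-bla reporter cells; 17 h incubation at 37 C. Read-out: LiveBLAzer FRET substrate, 2 h at room temperature, fluorescence intensity.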
# [6] = biological target: Peroxisome proliferator-activated receptor gamma (Homo sapiens) (UniProt P37231); assay: qHTS assay to identify small molecule antagonists of the peroxisome proliferator-activated receptor gamma (PPARg) signaling pathway (AID 743191; calls by dose curve; further: on the % scale 0 is the no-effect control and ±100 the full control effect; nearly all actives have a fitted effect of over 30% in size); conditions: HEK293H PPARg-UAS-bla, beta-lactamase ratio, antagonist, 17 h
# Outline: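 Beta-lactamase reporter under UAS control in HEK293H PPARg-bla cells; compound treatment 17 h at 37C. Read-out: fluorescence intensity after 1 h room-temperature incubation with LiveBLAzer B/G FRET substrate.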
# [7] = biological target: Vitamin D3 receptor (Homo sapiens) (UniProt P11473); assay: qHTS assay to identify small molecule antagonists of the vitamin D receptor (VDR) signaling pathway (AID 743223; active means well fitted inhibition curve with a large enough effect in the signal ratio in the repeat runs, not every such curve was filed as active; inconclusive means weak or mixed curves, or effect the other way; inactive means no such curve, though single readings can be large or run the other way; the % refers to the signal ratio; further: potency means the concentration at half of the fitted maximal effect); conditions: VDR-UAS-bla HEK293T, beta-lactamase FRET ratio, 16 h; activity change, negative = inhibition: at 61 µM (top of the series) unless noted
# Chain of UniProt P11473 (P11473 whole entry, looked up): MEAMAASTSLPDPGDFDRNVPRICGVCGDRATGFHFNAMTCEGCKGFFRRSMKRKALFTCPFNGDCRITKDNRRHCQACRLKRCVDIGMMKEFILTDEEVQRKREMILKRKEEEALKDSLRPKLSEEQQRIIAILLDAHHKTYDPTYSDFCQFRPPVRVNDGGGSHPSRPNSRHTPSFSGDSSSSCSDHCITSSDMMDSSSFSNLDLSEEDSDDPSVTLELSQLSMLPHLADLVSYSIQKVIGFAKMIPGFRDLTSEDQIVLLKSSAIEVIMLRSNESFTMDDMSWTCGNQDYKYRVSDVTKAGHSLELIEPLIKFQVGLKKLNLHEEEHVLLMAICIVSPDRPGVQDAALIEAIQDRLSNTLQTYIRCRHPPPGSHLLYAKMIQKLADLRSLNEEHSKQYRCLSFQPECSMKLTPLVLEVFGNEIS
# Outline: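 Quantitative HTS in VDR-bla reporter cells stimulated with 1alpha,25-dihydroxyvitamin D3, 3 nM final. Compound exposure 16 h, 37C, 5% CO2. Read-out: beta-lactamase FRET substrate fluorescence, 2 h RT.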
# [8] = qHTS assay for small molecule activators of the heat shock response signaling pathway - cell viability counter screen (AID 743209); conditions: HSE-bla HeLa viability, CellTiter-Glo luminescence, 5 h; activity change, negative = cytotoxicity: at 62.6 µM (top of the series); further: potency means the concentration at half of the fitted maximal effect; nearly all actives have a fitted effect of over 50% in size
# Outline: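 Cytotoxicity counter screen run in the same wells as the heat-shock bla reporter assay: HeLa HSE-bla cells, 5 h compound exposure at 37 C, viability read by CellTiter-Glo luminescence.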
# [9] = qHTS assay to identify small molecule agonists of the farnesoid-X-receptor (FXR) signaling pathway - cell viability counter screen (AID 743218); conditions: FXR-bla HEK293T viability, CellTiter-Glo luminescence, 16 h; viability change, negative = cytotoxic: at 62.6 µM (top of the series) unless noted; further: nearly all actives have a fitted effect of over 45% in size; further: potency means the concentration at half of the fitted maximal effect
# Outline: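 Viability counter screen in the same wells: CellTiter-Glo luminescence, 30 min room-temperature incubation, measured after the beta-lactamase read. Cells were GeneBLAzer FXR-UAS-bla HEK 293T, compound-treated 16 h at 37C.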
# [10] = qHTS assay to identify small molecule agonists of the peroxisome proliferator-activated receptor delta (PPARd) signaling pathway - cell viability counter screen (AID 743211); conditions: PPARd-bla HEK293H viability, CellTiter-Glo luminescence, 17 h; activity change, negative = cytotoxicity: at 62.6 µM (top of the series); further: on the % scale 0 is the no-effect control and ±100 the full control effect; nearly all actives have a fitted effect of over 55% in size
# Outline: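 Tox21 library compounds, delivered in DMSO, were incubated 17 h with PPARd-bla HEK293H cells; cytotoxicity was taken from CellTiter-Glo luminescence read 30 min after reagent addition.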
# [11] = biological target: Peroxisome proliferator-activated receptor delta (Homo sapiens) (UniProt Q03181); assay: qHTS assay to identify small molecule agonists of the peroxisome proliferator-activated receptor delta (PPARd) signaling pathway (AID 743212; calls by dose curve;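 further: HEK293H cells with PPARd UAS beta-lactamase reporter GeneBLAzer system; on the % scale 0 is the no-effect control and ±100 the full control effect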); conditions: HEK293H PPARd-UAS-bla, beta-lactamase FRET ratio, 17 h; activation: at 62.6 µM (top of the series) unless noted
# Outline: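 Steps: seed PPARd-bla HEK293H cells; incubate 5 h, 37 C, 5% CO2; add compounds in DMSO; incubate, 37 C; add LiveBLAzer B/G FRET substrate; hold 2 h at room temperature; measure fluorescence.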
# [12] = biological target: Bile acid receptor (Homo sapiens) (UniProt Q96RI1); assay: qHTS assay to identify small molecule antagonists of the farnesoid-X-receptor (FXR) signaling pathway (AID 743217; active means well fitted inhibition curve with a large enough effect in the signal ratio in the repeat runs, not every such curve was filed as active; inconclusive means weak or mixed curves, or effect the other way; inactive means no such curve, though single readings can be large or run the other way; the % refers to the signal ratio; further: on the % scale 0 is the no-effect control and ±100 the full control effect); conditions: HEK293T FXR-UAS-bla, beta-lactamase ratio, CDCA-stimulated, 16 h; activity change, negative = inhibition: at 62.6 µM (top of the series) unless noted
# Chain of UniProt Q96RI1 (Q96RI1 whole entry, looked up): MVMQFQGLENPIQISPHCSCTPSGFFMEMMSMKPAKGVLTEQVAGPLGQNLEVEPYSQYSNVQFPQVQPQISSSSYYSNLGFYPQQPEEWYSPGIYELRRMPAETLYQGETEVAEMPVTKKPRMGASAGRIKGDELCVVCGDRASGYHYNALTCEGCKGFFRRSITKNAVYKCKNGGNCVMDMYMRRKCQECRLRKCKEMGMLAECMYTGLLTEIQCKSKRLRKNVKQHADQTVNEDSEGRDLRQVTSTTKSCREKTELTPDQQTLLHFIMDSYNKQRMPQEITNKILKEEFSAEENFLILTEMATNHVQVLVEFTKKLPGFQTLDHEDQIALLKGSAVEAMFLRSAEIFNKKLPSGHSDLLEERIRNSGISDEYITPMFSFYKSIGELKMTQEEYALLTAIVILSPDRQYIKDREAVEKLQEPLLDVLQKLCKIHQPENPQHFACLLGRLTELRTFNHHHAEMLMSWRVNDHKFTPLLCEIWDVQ
# Outline: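 Antagonist mode: chenodeoxycholic acid at 50 uM final stimulates a UAS-driven beta-lactamase reporter in HEK 293T FXR-bla cells during 16 h, 37C compound exposure. Read-out is FRET substrate fluorescence after 2 h at room temperature.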
# [13] = qHTS assay for small molecule activators of the heat shock response signaling pathway (AID 743210; active means well fitted activation curve with a large enough effect in the signal ratio in the repeat runs, with a control signal flat, not every such curve was filed as active; inconclusive means weak or mixed curves; the % refers to the signal ratio; further: potency means the concentration at half of the fitted maximal effect); conditions: HeLa HSE-bla reporter, beta-lactamase ratio, 5 h; activation: at 62.6 µM (top of the series)
# Outline: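 Fluorescence from a cleaved B/G FRET substrate (2.5 h, room temp) reports HSE-driven beta-lactamase in HeLa cells treated 5 h at 37 C with DMSO-dissolved compounds.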
# [14] = activation: at 73.3 µM (top of the series) unless noted
# [15] = ratio activity, negative = inhibition: at 62.6 µM (top of the series) unless noted
# Tags describe the fitted curve by direction and shape or compound fluorescence and quenching.
structure (smiles),measurement,setting,value
O=NN(CCCl)C(=O)NCCCl,Potency,[1],inactive
same,Potency,[2],"inconclusive: 26.6 µM [rising, partial curve, poor fit]"
same,Potency,[3],"inconclusive: 11.9 µM [cytotoxic, single point]"
CCCCCCCCCC/C=C/C#N,Potency,[1],inactive
same,Potency,[2],inactive
same,activation,[4]; [14],inconclusive: -16%
same,Potency,[5],inactive
CCOC(=O)CC1(C)OCC(C)O1 (stereo not given),"ratio activity, negative = inhibition",[6]; [15],inconclusive: 4.36%
O=P(O)(O)C(O)(Cc1cccnc1)P(=O)(O)O,"ratio activity, negative = inhibition",[6]; [15],inconclusive: 4.11%
C1CNCCN1,"ratio activity, negative = inhibition",[6]; at 62.6 µM (top of the series),inactive: 0.348%
same,"ratio activity, negative = inhibition",[6]; at 81.1 µM (top of the series),inactive: 2.71%
same,"ratio activity, negative = inhibition",[6]; [15],inconclusive: -34.5% [at 81.1 µM]
same,Potency,[4]; [14],"inconclusive: 42.9 µM [rising, partial curve, poor fit]"
same,Potency,[7],"inconclusive: 0.395 µM [cytotoxic, full curve]"
Nc1cccc2c(=O)[nH][nH]c(=O)c12,Potency,[1],inactive
same,Potency,[8],"inconclusive: 0.0552 µM [rising, full curve, poor fit]"
same,Potency,[3],"inconclusive: 43.9 µM [rising, single point]"
CCO/C=C1\N=C(c2ccccc2)OC1=O,"ratio activity, negative = inhibition",[6]; [15],inconclusive: -20.5%
CC1(C)OC[C@@H]2O[C@@]3(C(=O)O)OC(C)(C)O[C@H]3[C@@H]2O1,"ratio activity, negative = inhibition",[6]; at 62.6 µM (top of the series),inactive: 9.32%
same,"ratio activity, negative = inhibition",[6]; [15],inconclusive: 8.1%
same,Potency,[2],inactive
O=C(O)C(O)[C@H](O)[C@@H](O)[C@H](O)[C@H](O)CO (stereo not given in full),Potency,[1],inactive
same,Potency,[4]; [14],inactive
same,Potency,[3],"inconclusive: 0.197 µM [cytotoxic, single point]"
same,Potency,[9],inactive
same,Potency,[7],"inconclusive: 0.014 µM [falling, partial curve, poor fit]"
CN(C)CCCN(C)CCCN(C)C,Potency,[1],inactive
same,Potency,[10],inactive
same,activation,[11],inconclusive: -0.315%
same,Potency,[12],inactive
O=[N+]([O-])c1ccc2nc[nH]c2c1,Potency,[1],inactive
same,activation,[4]; at 73.3 µM (top of the series),inconclusive: -1.39%
same,activation,[4]; at 94.8 µM (top of the series),inconclusive: -11.4%
same,Potency,[3],"inconclusive: 15.8 µM [rising, partial curve, poor fit]"
CC(C)(C)NSc1nc2ccccc2s1,activation,[1],inconclusive: 9.7% [at 78.9 µM]
same,Potency,[4]; [14],active: 27.8 µM
same,Potency,[8],"inconclusive: 0.627 µM [rising, full curve, poor fit]"
same,Potency,[13],inconclusive: 8.52 µM
same,Potency,[9],"inconclusive: 2.23 µM [rising, partial curve, poor fit]"
same,"activity change, negative = inhibition",[7],inconclusive: -0.0318% [at 78.8 µM]
